According to publication PMC3617184:
Results are given in words; binding and its absence hold for the method and conditions named. In cells and extracts the contact can be indirect. Some results given as binding are weak or reduced against the parent protein; the word gives no strength. Where a sequence is shown, tags or fusion partners need not be part of it. Each block holds one binder with its values, some of them ahead of it.

Experiments:
Swi6 (S. cerevisiae) = molecular target: T1, Swi6 (S. cerevisiae) (UniProt P09959); assay: co-IP; lysate of an asynchronous Nrm1-myc culture; IP with anti-Mbp1, anti-Swi4 or anti-Swi6 polyclonal sera, protein A Sepharose, 2 hours at 4°C; lysis buffer 50 mM Tris-HCl pH 7.5, 1% Triton X-100, 250 mM NaCl; blots with anti-myc, anti-Mbp1, anti-Swi6, anti-Swi4
T1 sequence: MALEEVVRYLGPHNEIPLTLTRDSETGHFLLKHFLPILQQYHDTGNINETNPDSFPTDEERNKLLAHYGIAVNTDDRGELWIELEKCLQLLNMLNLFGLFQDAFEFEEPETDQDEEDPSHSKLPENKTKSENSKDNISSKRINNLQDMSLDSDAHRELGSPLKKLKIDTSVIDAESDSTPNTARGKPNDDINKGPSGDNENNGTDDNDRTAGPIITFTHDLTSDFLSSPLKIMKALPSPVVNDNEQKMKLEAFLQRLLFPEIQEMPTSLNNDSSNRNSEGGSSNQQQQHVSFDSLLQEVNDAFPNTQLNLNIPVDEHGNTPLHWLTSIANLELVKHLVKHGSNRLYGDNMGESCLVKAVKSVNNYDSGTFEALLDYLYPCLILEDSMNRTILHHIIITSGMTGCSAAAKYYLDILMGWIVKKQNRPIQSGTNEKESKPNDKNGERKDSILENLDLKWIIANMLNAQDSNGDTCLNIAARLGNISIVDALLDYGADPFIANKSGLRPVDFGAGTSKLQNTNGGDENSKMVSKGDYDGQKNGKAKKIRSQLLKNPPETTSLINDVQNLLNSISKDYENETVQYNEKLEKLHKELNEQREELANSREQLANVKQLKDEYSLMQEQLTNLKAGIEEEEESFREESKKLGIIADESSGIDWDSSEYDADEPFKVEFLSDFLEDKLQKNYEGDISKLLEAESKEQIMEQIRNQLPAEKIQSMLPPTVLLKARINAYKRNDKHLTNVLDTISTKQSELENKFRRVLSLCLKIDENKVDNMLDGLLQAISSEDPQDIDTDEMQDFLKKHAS

[1] = molecular target: T2, myc-tagged Whi5 (S. cerevisiae) (UniProt Q12416); assay: co-IP; lysate of an asynchronous Whi5-myc culture; IP with anti-myc antibody; blots with anti-myc, anti-Swi6, anti-Swi4, anti-Mbp1
T2 sequence: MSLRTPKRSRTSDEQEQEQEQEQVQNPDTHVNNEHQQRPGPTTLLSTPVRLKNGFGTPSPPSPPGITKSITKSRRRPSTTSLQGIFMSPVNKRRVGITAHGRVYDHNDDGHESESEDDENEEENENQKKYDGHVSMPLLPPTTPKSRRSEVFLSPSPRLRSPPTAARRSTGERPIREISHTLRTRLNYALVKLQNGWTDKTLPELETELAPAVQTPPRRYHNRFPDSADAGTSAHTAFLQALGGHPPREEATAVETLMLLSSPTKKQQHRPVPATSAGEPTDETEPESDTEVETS

Swi4 (S. cerevisiae) = molecular target: T3, Swi4 (S. cerevisiae) (UniProt P25302); assay: co-IP; lysate of an asynchronous Nrm1-myc culture; IP with anti-Mbp1, anti-Swi4 or anti-Swi6 polyclonal sera, protein A Sepharose, 2 hours at 4°C; lysis buffer 50 mM Tris-HCl pH 7.5, 1% Triton X-100, 250 mM NaCl; blots with anti-myc, anti-Mbp1, anti-Swi6, anti-Swi4
T3 sequence: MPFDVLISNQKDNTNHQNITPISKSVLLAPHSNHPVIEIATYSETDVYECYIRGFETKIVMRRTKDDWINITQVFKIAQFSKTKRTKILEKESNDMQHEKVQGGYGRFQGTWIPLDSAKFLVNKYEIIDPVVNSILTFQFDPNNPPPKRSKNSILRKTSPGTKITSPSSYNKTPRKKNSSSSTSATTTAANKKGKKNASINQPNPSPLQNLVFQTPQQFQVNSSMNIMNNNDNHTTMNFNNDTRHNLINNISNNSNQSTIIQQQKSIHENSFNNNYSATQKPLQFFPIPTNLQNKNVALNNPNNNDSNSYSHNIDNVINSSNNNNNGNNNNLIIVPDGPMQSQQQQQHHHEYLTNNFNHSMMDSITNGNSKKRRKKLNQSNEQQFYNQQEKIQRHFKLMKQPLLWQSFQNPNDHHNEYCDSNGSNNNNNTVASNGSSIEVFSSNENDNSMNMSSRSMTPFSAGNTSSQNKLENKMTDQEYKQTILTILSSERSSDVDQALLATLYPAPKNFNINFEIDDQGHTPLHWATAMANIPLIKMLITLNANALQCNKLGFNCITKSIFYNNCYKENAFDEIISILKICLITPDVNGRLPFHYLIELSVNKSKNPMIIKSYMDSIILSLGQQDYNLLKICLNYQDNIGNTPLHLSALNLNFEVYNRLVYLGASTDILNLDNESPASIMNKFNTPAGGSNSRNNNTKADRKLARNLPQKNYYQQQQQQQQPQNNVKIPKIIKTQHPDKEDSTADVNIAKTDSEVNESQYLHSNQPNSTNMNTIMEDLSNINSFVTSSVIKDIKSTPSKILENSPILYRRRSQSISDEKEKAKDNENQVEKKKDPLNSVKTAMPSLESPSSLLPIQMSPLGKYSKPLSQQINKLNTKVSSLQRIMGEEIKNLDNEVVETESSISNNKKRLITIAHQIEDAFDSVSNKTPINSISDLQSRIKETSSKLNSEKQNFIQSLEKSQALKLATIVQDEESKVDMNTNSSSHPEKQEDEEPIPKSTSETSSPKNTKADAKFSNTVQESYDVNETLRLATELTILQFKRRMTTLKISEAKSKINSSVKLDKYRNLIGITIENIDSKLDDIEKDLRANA

Mbp1 (S. cerevisiae) = molecular target: T4, Mbp1 (S. cerevisiae) (UniProt P39678); assay: as above
T4 sequence: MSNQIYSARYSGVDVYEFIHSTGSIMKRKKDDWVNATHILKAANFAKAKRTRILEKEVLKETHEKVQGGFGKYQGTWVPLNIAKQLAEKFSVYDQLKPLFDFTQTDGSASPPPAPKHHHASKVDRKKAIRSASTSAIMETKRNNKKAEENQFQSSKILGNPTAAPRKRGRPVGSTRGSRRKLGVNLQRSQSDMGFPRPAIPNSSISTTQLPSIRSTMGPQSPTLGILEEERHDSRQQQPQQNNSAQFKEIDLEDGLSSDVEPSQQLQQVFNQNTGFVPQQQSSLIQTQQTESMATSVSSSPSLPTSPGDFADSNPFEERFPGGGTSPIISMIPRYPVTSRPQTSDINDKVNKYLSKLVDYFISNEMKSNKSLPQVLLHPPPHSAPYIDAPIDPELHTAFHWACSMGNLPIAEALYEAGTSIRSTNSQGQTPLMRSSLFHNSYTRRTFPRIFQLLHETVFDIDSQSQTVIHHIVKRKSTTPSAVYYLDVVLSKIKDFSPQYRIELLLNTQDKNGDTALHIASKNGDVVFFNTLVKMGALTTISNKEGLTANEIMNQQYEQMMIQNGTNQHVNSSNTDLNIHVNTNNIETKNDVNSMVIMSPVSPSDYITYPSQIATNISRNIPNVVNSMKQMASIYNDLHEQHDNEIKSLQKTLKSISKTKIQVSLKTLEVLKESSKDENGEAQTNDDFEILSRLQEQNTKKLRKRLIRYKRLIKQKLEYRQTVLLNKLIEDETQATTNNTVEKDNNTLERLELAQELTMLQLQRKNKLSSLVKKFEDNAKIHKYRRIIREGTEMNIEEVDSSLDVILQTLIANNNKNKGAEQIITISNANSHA

binding (Swi6 (S. cerevisiae)): binds | binding [1]: no binding
B1: Mbp1 (protein, UniProt P39678 1-833)
chain: T4 sequence

binding (Swi6 (S. cerevisiae)): binds | binding [1]: binds
B2: Swi4 (protein, UniProt P25302 1-1093)
chain: T3 sequence

binding (Swi4 (S. cerevisiae)): no binding | binding (Swi6 (S. cerevisiae)): binds | binding (Mbp1 (S. cerevisiae)): binds
B3: myc-tagged Nrm1 (protein, UniProt P53718 1-249)
chain: MSIMKQRLPLGEFSSSKINKLAIANIADASEPRNHGENNVGTVCLPSIKSLMVSPEVYENTKSLPVPLMRSSGGGMACASKSSCQDGISTKTTSRDYSELSKKLQIRLQFAYYKYKTKQTDKNFTDLKSKHSITRPSKVATHSKSEPLTRRRKLVLSQGHYKTPARSKIKTPSSICSHDNTSSFTSFRGVSESSSTTADMNVADTTTPIRNNINTKHSNSHNRTLYQRQETPTSIKAAKSLIHLFTSNQ
